We go through 44 sequences from the supplement of paper PMC11417369.

The list shows a part of the results.

This assay relates to PfHDP1 homeodomain (GST-tagged). In words: gcPBM binding intensity (ln(normalized median fluorescence intensity)); higher = stronger DNA binding. In a few lines:
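In this array assay, P. falciparum DNA-binding domains with a GST tag, expressed in E. coli, were applied for 1 h to primer-extended double-stranded 36-bp intergenic genomic probes and negative controls on an Agilent 4 × 180k array. Bound protein was visualised with Alexa488 anti-GST antibody at 488 nm. Binding intensity is the highest Masliner-normalised natural-log median intensity across replicate spots of either probe orientation.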
Consider “ATAAATTTATATACTTGTACATATATATATTACATA [XGTACX_site6697]”, for which the “gcPBM binding intensity (ln)” value is 6.7.
As to “ACTATCATTTTTTTAACACACAAAAAAAATAAAATA [CACACA_site3519]”, the “gcPBM binding intensity (ln)” value worked out at 6.44.
Under “TTTTAGCACTTATTATAAGATATCAAAAAGATGGGT [XGTACX_negctrl_site325]” stands 6.71; under “TTTGAAATAAAAAGGTGTACACTCGATTAATAAATA [XGTACX_site6943]”, 6.88; under TATCTTATTTTAAAAGTGCATGGAAAGGGGTTTTTG, 6.64.
For “TGTATAAGTGCCGTTATACACACGTTATATAAATAT [CACACA_site438]”, the “gcPBM binding intensity (ln)” value is 6.67.
Next, “AAGAATACACCACGCACACACACTTGAGAAAAAATA [CACACA_site3828]”: 7.57; “AAGATTAATATTTTATGTACATATGTAATATATATG [XGTACX_site4367]”: 6.55.
Regarding “ATATTTTTATGATGTATCCAAGAAATGGAACTATAT [CACACA_negctrl_site1268]”, the “gcPBM binding intensity (ln)” value is 6.23.
On to “ATTTTAGATATCCTGCGTACACAAATTGCTTTATTT [XGTACX_site7149]”, for which the “gcPBM binding intensity (ln)” value amounted to 6.91.
As to “ATATATACCTAAGACACACACATATAGATTTATATA [CACACA_site6498]”, the “gcPBM binding intensity (ln)” value stood at 6.57.
As to “TTCTTTGTGGTATAGATACACACTATATTAATATGA [CACACA_site2150]”, the “gcPBM binding intensity (ln)” value came to 7.06.
“AAATAATATATGAATGCACACAGTAAAAATTAAAGA [CACACA_site2252]”: the “gcPBM binding intensity (ln)” value came out at 8.64.
As for “AAAATTTCAATAAATACACACATATATATATATATT [CACACA_site1685]”, the “gcPBM binding intensity (ln)” value was 6.54.
“TCATAAATTAATAATACATGCATAATATTAAAATGT [TGCATGCA_site5]”: the “gcPBM binding intensity (ln)” value turned out to be 6.47.
Turning to “AAAAATATATAAGAGAGTACATAAAATAAATTAATT [XGTACX_site1534]”, the “gcPBM binding intensity (ln)” value came to 6.37.
Take “TTTAATAATATAATGTGTACTTAAAAATTTATATAT [XGTACX_site5821]”: the “gcPBM binding intensity (ln)” value was found to be 6.32.
Consider “AAAAAATACAAGAAATGTACTCAAGCATATATTAAT [XGTACX_site3325]”, for which the “gcPBM binding intensity (ln)” value turned out to be 6.54.
In the case of “TTCATTATTATTAACATACACACGTGTTATATACAC [CACACA_site4112]”, the “gcPBM binding intensity (ln)” value is 7.16.
In the case of “TTCATTTTTTAAGCATCACACACGAAAGAACAAAGT [CACACA_site1122]”, the “gcPBM binding intensity (ln)” value amounted to 7.22.
Next, “TTTACATCCAAAAACTGTACACTTATTTTATAATTC [XGTACX_site5332]”: 6.6; “ATCAAAAATATAAAAAATATAAACAATTTATTATCA [CACACA_negctrl_site768]”: 6; “ATATATATAATATGTAGTACTTTCCTCTCAAATCAT [XGTACX_site7766]”: 6.53.
For the sequence “AATAAGTAACAAAATACACACATATATATAATTATA [CACACA_site1837]”, the “gcPBM binding intensity (ln)” value amounted to 6.67.
For “GAATCATATTTAAACACACATACATATATATATATA [CACACA_site3352]”, the “gcPBM binding intensity (ln)” value came out at 9.22.
Under “AGTATATCAAAATACATACACACATTTGTATATACA [CACACA_site2697]” stands 6.46; under “TTTTTTTTTTTTTTTTGTACACAAATTTATTGTCTA [XGTACX_site2680]”, 6.22.
Regarding “GTCCTCATCCACTATGCACACAAAAAAGAAATACAC [CACACA_site9131]”, the “gcPBM binding intensity (ln)” value was 10.5.
As for “TACGTTATGTTGAATAGTACAATTTGGTGAACAGGT [XGTACX_site1729]”, the “gcPBM binding intensity (ln)” value is 7.06.
For the sequence “TTTCCAAATTGTTGACGGACACTCACGAATAGTTAT [XGTACX_site5720]”, the “gcPBM binding intensity (ln)” value worked out at 6.27.
Turning to “CATATGTATATGACTACACACAAGGGTGTACATATA [CACACA_site1164]”, the “gcPBM binding intensity (ln)” value stood at 6.35.
Consider “ACATGAAGATATTTTTGTCCGTACAAATTCATATGA [XGTACX_site1837]”, for which the “gcPBM binding intensity (ln)” value stood at 6.23.
In the case of “TCATTTCAATACACAAGTACGTATATGGTTATATTG [XGTACX_site6021]”, the “gcPBM binding intensity (ln)” value amounted to 6.52.
As for “AATATAAAATAATGCACACATAAACAAAAAATCAAA [CACACA_site1371]”, the “gcPBM binding intensity (ln)” value was found to be 10.4.
With “ATTCTATATATGTGCACACAAAAGATATATATATAT [CACACA_site2124]”, the “gcPBM binding intensity (ln)” value was 11.4.
For the sequence TTACATGTACAAAAGTTGCACTTCATACACTTTTAT, the “gcPBM binding intensity (ln)” value came out at 8.83.
Regarding “TCATTTTATTATTCTACACACTTATCTATAATTACA [CACACA_site6168]”, the “gcPBM binding intensity (ln)” value stood at 6.66.
As for “CGAAGGTTTGGCCATGCATGTTATAAGAATATATGT [TGCATGCA_site441]”, the “gcPBM binding intensity (ln)” value is 6.57.
Consider “AAAATTAAAAATTACTGTACGTATTAGAGAATAAAT [XGTACX_site2567]”, for which the “gcPBM binding intensity (ln)” value is 6.33.
Regarding “AAAAAATATTGAAGTACACACATTATAAACTTTTTT [CACACA_site5029]”, the “gcPBM binding intensity (ln)” value stood at 6.28.
Turning to “ACCTAATTCAAATACAGTACATATACAATATATATA [XGTACX_site2779]”, the “gcPBM binding intensity (ln)” value came to 6.69.
As for “AAAATATTAATTAATACATGCATATATATATATATA [TGCATGCA_site585]”, the “gcPBM binding intensity (ln)” value came to 9.3.
On to “TATATTGTATAAAAATGTACATGCAATAAATTTAGT [XGTACX_site5621]”, for which the “gcPBM binding intensity (ln)” value is 7.32.
Regarding “TACATTAACGGATTATTTCTCAATACAACATCATTT [CACACA_negctrl_site981]”, the “gcPBM binding intensity (ln)” value was 6.27.
